# Data taken from PubChem BioAssay AID1347120 (National Center for Advancing Translational Sciences (NCATS), 2019).
# The whole screen tested about 390,000 compounds, of which about 930 (0.24%) were called active. The inconclusive results got no clear call from the source; some entries with a clear call stand among them for comparison. The call rests on the fitted dose curve; in most records, active means well fitted activation curve with a large enough effect; inconclusive means small, poorly fitted or top-dose-only effect; inactive means no such curve, though single readings can be large or run the other way. Potencies beside an inconclusive call are fits to weak or partial responses and may not hold up.
# Experiment: qHTS for Suppressors of FUS Proteinopathy: Primary screen using FUS-linked yeast assay; further: nearly all actives have a fitted effect of over 55% in size;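 on growth rescue (activation): plate controls were DMSO vehicle for no effect and reference control for full effect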
# Details: S. cerevisiae FUS-expressing, OD600, 24 h; Potency: growth rescue; growth rescue (activation): at 76.6 µM (top of the series)
# In short: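 Compound concentration series was pinned onto galactose-induced FUS-expressing yeast seeded at OD 0.005. Plates sat 24hr at 30C; absorbance at 600 nm gave growth. DMSO served as background control.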
# Potency means the concentration at half of the fitted maximal effect; tags describe the fitted curve by direction and shape.
SMILES,growth rescue (activation),Potency
CC(=NCc1cccnc1)c1c(O)n(C2CCCCC2)c(=O)[nH]c1=O,inconclusive: 57.4% [activator],–
COC(=O)C1=C(c2cccc(OCc3ccccc3)c2)C[C@@H]2CC[C@H]1N2C(=O)NCc1ccc(F)cc1,–,"inconclusive: 25.1 µM [activator, partial curve]"
COC(=O)C1=C(c2ccc(S(C)(=O)=O)cc2)C[C@@H]2CC[C@H]1N2C(=O)NCc1cccc2ccccc12,–,"inconclusive: 20 µM [activator, partial curve]"
COC(=O)C1=C(c2cccc(OCc3ccccc3)c2)C[C@@H]2CC[C@H]1N2C(=O)NCCCOC(C)C,–,"inconclusive: 17.8 µM [activator, single point]"
COC(=O)C1=C(c2cc3ccccc3s2)C[C@@H]2CC[C@H]1N2C(=O)N1CCC(O)CC1,–,"inconclusive: 28.2 µM [activator, partial curve, poor fit]"
NC(N)=N/N=C/c1ccc(N(c2ccccc2)c2ccccc2)cc1,–,"inconclusive: 28.2 µM [activator, single point]"
COC(=O)[C@@H]1N=C(c2ccc(OC)cc2)O[C@]12C(=O)N(Cc1ccccc1)c1ccccc12,–,"inconclusive: 39.8 µM [activator, single point]"
C=C1C(=O)O[C@@H]2C[C@@H](C)[C@@H]3C=CC(=O)[C@@]3(C)[C@@H](OC(=O)CC(=O)O[C@H]3[C@@H]4C(=C)C(=O)O[C@@H]4C[C@@H](C)[C@@H]4C=CC(=O)[C@]43C)[C@H]12,–,"inconclusive: 35.5 µM [activator, single point]"
Cc1ccc(N2C(=O)NC(=O)/C(=C\c3cnc(-c4ccccc4)nc3)C2=O)cc1,–,"inconclusive: 31.6 µM [activator, single point]"
COC(=O)C1=C(c2ccc(F)cc2OCc2ccccc2)C[C@@H]2CC[C@H]1N2C(=O)NCc1ccccc1Cl,–,"inconclusive: 14.1 µM [activator, partial curve, poor fit]"
O=c1[nH]c2ccccc2n1C1CCN(C(c2ccnc3ccccc23)c2nnnn2Cc2ccccc2)CC1 (stereo not given),–,"inconclusive: 35.5 µM [activator, single point]"
CCCCn1c(N)c(C(=O)NCc2cccs2)c2nc3ccccc3nc21,–,"inconclusive: 50.1 µM [activator, single point]"
COc1cccc(-c2sc3ccccc3c2-c2ccc(OCCN3CCOCC3)cc2)c1,–,"inconclusive: 31.6 µM [activator, single point]"
O=C1NC(=O)C2(Cc3ccccc3N3CCCC32)C(=O)N1c1cccc(Cl)c1 (stereo not given),–,"inconclusive: 22.4 µM [activator, partial curve, poor fit]"
CN(C)C1C(=O)C(C(N)=O)=C(O)C2(O)C(=O)C3=C(O)c4c(O)cccc4C(C)(O)C3C(O)C12 (stereo not given),–,"inconclusive: 25.1 µM [activator, partial curve, poor fit]"
O=C1NC(=O)N(Cc2ccccc2)C(=O)/C1=C\N1CCCc2ccccc21,–,"inconclusive: 25.1 µM [activator, single point]"
COc1ccc(-n2nnnc2C(c2ccccc2)N2CCC3(CC2)C(=O)NCN3c2ccccc2)cc1 (stereo not given),–,"inconclusive: 20 µM [activator, partial curve, poor fit]"
O=C(c1cc2nc(-c3ccccc3)cc(-c3ccccc3)n2n1)N1CCC2(CC1)OCCO2,–,"inconclusive: 50.1 µM [activator, single point]"

SMILES,growth rescue (activation),Potency
COC(=O)c1cc2c(s1)=NC=NP=2(N1CCOCC1)N1CCOCC1,–,inactive
CCc1ccc(-n2nc(C)c3c2NC(=O)CSC3c2ccc(C(=O)OC)cc2)cc1 (stereo not given),–,"inconclusive: 20 µM [activator, partial curve, poor fit]"
COc1ccc2c3c1OC1C(=O)CC[C@@]4(O)[C@@H](C2)N(C)CC[C@]314 (stereo not given in full),–,inactive
CCCC[C@@H](C)C[C@@H](C)C(=O)N(C)[C@@H](CC(C)C)C(=O)N[C@H](C(=O)N(C)[C@H](C(=O)N1C[C@@H](O)C[C@H]1C(=O)N1C(=O)C=C[C@@H]1C)C(C)C)C(C)OC(C)=O (stereo not given in full),–,"inconclusive: 14.1 µM [activator, partial curve, poor fit]"
CCCCn1c(NC(=O)c2ccc(Br)o2)c(C(=O)OCC)c2nc3ccccc3nc21,–,inactive
COc1ccc(-c2nc3ccccc3c(=O)n2-c2ccc(OC)cc2)cc1,–,inactive
COC(=O)C1=C(c2cccc(OCc3ccccc3)c2)C[C@@H]2CC[C@H]1N2C(=O)NCc1ccccc1OC,–,"inconclusive: 10 µM [activator, full curve, poor fit]"
Cc1ccc(-n2c(C)cc(/C=C3/C(=O)NC(=O)N(Cc4ccco4)C3=O)c2C)cc1,–,inactive
Nc1cccc(N=Cc2c(O)n(Cc3ccc(F)cc3)c(=O)[nH]c2=O)c1,–,active: 11.2 µM
COC(=O)C1=C(c2ccc(Cl)c(C(F)(F)F)c2)C[C@@H]2CC[C@H]1N2C(=O)NCCOc1ccccc1,–,active: 22.4 µM
COC(=O)C1=C(c2ccc(F)cc2F)C[C@@H]2CC[C@H]1N2C(=O)N1CCC(O)(c2ccc(Cl)cc2)CC1,–,"inconclusive: 7.94 µM [activator, partial curve]"
COC(=O)C1=C(c2cc3ccccc3s2)C[C@@H]2CC[C@H]1N2C(=O)NCc1cccc2ccccc12,–,"inconclusive: 7.94 µM [activator, partial curve, poor fit]"
C[C@@H]1CC[C@H]2[C@@H](C)C(=O)O[C@@H]3O[C@@]4(C)CC[C@@H]1[C@]32OO4,–,inactive
O=c1c2ccccc2nc(/C=C/c2ccccc2F)n1-c1ccccc1O,–,inactive
CCOC(=O)CNC(=O)CNC(=O)C(Cc1ccc(N(CCCl)CCCl)cc1)NC(C)=O (stereo not given),–,inactive
N#Cc1ccc(Cn2cc(C(=O)c3ccco3)c3ccccc32)cc1,–,"inconclusive: 10 µM [activator, full curve, poor fit]"
COC(=O)C1=C(c2ccc(Cl)c(C(F)(F)F)c2)C[C@@H]2CC[C@H]1N2C(=O)NCCCOC(C)C,–,"inconclusive: 25.1 µM [activator, partial curve]"
